# Measured values as given in patent US20100311683A1, “CYTIDINE ANALOGS FOR TREATMENT OF MYELODYSPLASTIC SYNDROMES” (priority 2007, published 2010).
# Where two headings read alike, the source gives them in different places.
# Assays:
# [1] = system: patients with higher risk MDS; assay: AZA-001 pooled subgroup analysis by Western EU country; format: in vivo, human
# [2] = system: patients with higher risk MDS
# [3] = system: patients with higher risk MDS; remark: listed apart in the source
# [4] = system: patients with higher risk MDS; assay: Phase III AZA-001 trial: azacitidine vs conventional care regimens (overall survival, AML transformation, IWG 2000 response, transfusion independence, infections, safety); settings: in vivo
# [5] = pre-selection LDara-C, AZA N=45 / LDara-C N=49
# [6] = pre-selection LDara-C, safety population AZA N=45 / LDara-C N=44
# [7] = safety population: AZA N=175, LDAC N=44, Std Chemo N=19
# [8] = patients pre-selected for LDAC: AZA n=45, LDAC n=49
compound,measurement,setting,value
"Nc1ccn([C@@H]2O[C@H](CO)[C@@H](O)[C@@H]2O)c(=O)n1 [LDara-C, cytosine 1-β-D-arabinofuranoside]","HR OS, pooled LDAC group vs pooled BSC group","[1]; France/UK n=36 vs Germany, Italy, Spain n=69",0.95
same,OS,"[1]; pooled LDAC group, France/UK, n=36",16.9 months
same,deaths reported during treatment and follow-up,[2]; by treatment group,59%
same,discontinuation / early withdrawal due to blood cytopenias,[2]; by treatment group,4.5%
same,"Anemia, baseline Grade 0-2 shifting to Grade 3-4 during treatment",[2]; pre-selection LDara-C,(76) %
same,HI-E Major rate,[2]; pre-selection LDara-C,(9.8) %
same,HI-N Major rate,[2]; pre-selection LDara-C,(10.7) %
same,HI-P Major rate,[2]; pre-selection LDara-C,(19.4) %
same,IWG Any hematologic improvement rate,[2]; pre-selection LDara-C,(25.0) %
same,"Neutropenia, baseline Grade 0-2 shifting to Grade 3-4 during treatment",[2]; pre-selection LDara-C,(79) %
same,"Thrombocytopenia, baseline Grade 0-2 shifting to Grade 3-4 during treatment",[2]; pre-selection LDara-C,(97) %
same,rate of infections requiring intravenous antimicrobials,[2]; pre-selection LDara-C,1.00 per patient year
same,Complete Remission (CR) rate,[2]; [5],(8.2) %
same,Kaplan-Meier median overall survival,[2]; [5],15.3 months
same,Partial Remission (PR) rate,[2]; [5],(4.1) %
same,Stable Disease (SD) rate,[2]; [5],(36.7) %
same,Deaths during first 3 cycles of treatment,"[2]; pre-selection LDara-C, ITT",(14) %
same,"Deaths, overall","[2]; pre-selection LDara-C, ITT, AZA N=45 / LDara-C N=49",(63) %
same,Grade 3-4 Anemia,[2]; [6],(77) %
same,Grade 3-4 Neutropenia,[2]; [6],(89) %
same,Grade 3-4 Thrombocytopenia,[2]; [6],(96) %
same,"Anemia, baseline Grade 0-2 shifting to Grade 3-4 during treatment",[2]; safety population,79%
same,"Neutropenia, baseline Grade 0-2 shifting to Grade 3-4 during treatment",[2]; safety population,79%
same,"Thrombocytopenia, baseline Grade 0-2 shifting to Grade 3-4 during treatment",[2]; safety population,97%
same,Grade 3-4 Anemia,[2]; [7],76%
same,Grade 3-4 Neutropenia,[2]; [7],88%
same,Grade 3-4 Thrombocytopenia,[2]; [7],98%
same,CR+PR rate,[3]; patients pre-selected for LDAC,12.2%
same,HI (major + minor),[3]; patients pre-selected for LDAC,25.0%
same,deaths during study,[3]; patients pre-selected for LDAC,59%
same,transfusion independence in baseline-dependent patients,[3]; patients pre-selected for LDAC,13%
same,median OS,[3]; [8],15.3 months
same,rate of early discontinuation,[3]; [8],67%
same,deaths considered related to treatment during the first 3 cycles,[4],1 patients
